# Data taken from PMC9911399, “Two distinct binding modes provide the RNA-binding protein RbFox with extraordinary sequence specificity”.
# Positions count from the first letter of the chain named. Some of the results follow.
# B1: CAUGUGU (DNA:RNA)
# RNA: GGGAGACCGGAAUUCAGAUUGUCCCAUGUGUUUAAAUCCCGUCGUAGCCACCA
# DNA 1: CAATCTGAATTCCGGTCTCCC
# DNA 2: TGGTGGCTACGACGGGATT
# B2: AACUCAC (DNA:RNA)
# RNA: B1 RNA with C25A, U27C, G28U, U29C, G30A, U31C
# DNA 1: CAATCTGAATTCCGGTCTCCC
# DNA 2: TGGTGGCTACGACGGGATT
# B3: AUAGUCG (DNA:RNA)
# RNA: B1 RNA with C25A, A26U, U27A, G30C, U31G
# DNA 1: CAATCTGAATTCCGGTCTCCC
# DNA 2: TGGTGGCTACGACGGGATT
# B4: AAAUUGC (DNA:RNA)
# RNA: B1 RNA with C25A, U27A, G28U, U31C
# DNA 1: CAATCTGAATTCCGGTCTCCC
# DNA 2: TGGTGGCTACGACGGGATT
# B5: CUGGCCU (DNA:RNA)
# RNA: B1 RNA with A26U, U27G, U29C, G30C
# DNA 1: CAATCTGAATTCCGGTCTCCC
# DNA 2: TGGTGGCTACGACGGGATT
# B6: AGCUCGC (DNA:RNA)
# RNA: B1 RNA with C25A, A26G, U27C, G28U, U29C, U31C
# DNA 1: CAATCTGAATTCCGGTCTCCC
# DNA 2: TGGTGGCTACGACGGGATT
# B7: AUGCUGA (DNA:RNA)
# RNA: B1 RNA with C25A, A26U, U27G, G28C, U31A
# DNA 1: CAATCTGAATTCCGGTCTCCC
# DNA 2: TGGTGGCTACGACGGGATT
# B8: GGCGGUU (DNA:RNA)
# RNA: B1 RNA with C25G, A26G, U27C, U29G, G30U
# DNA 1: CAATCTGAATTCCGGTCTCCC
# DNA 2: TGGTGGCTACGACGGGATT
# B9: UGCGGGA (DNA:RNA)
# RNA: B1 RNA with C25U, A26G, U27C, U29G, U31A
# DNA 1: CAATCTGAATTCCGGTCTCCC
# DNA 2: TGGTGGCTACGACGGGATT
# B10: CUUAUAA (DNA:RNA)
# RNA: B1 RNA with A26U, G28A, G30A, U31A
# DNA 1: CAATCTGAATTCCGGTCTCCC
# DNA 2: TGGTGGCTACGACGGGATT
# B11: CUGCUCG (DNA:RNA)
# RNA: B1 RNA with A26U, U27G, G28C, G30C, U31G
# DNA 1: CAATCTGAATTCCGGTCTCCC
# DNA 2: TGGTGGCTACGACGGGATT
# B12: UACCUUG (DNA:RNA)
# RNA: B1 RNA with C25U, U27C, G28C, G30U, U31G
# DNA 1: CAATCTGAATTCCGGTCTCCC
# DNA 2: TGGTGGCTACGACGGGATT
# B13: UACUUCU (DNA:RNA)
# RNA: B1 RNA with C25U, U27C, G28U, G30C
# DNA 1: CAATCTGAATTCCGGTCTCCC
# DNA 2: TGGTGGCTACGACGGGATT
# B14: GCUACGC (DNA:RNA)
# RNA: B1 RNA with C25G, A26C, G28A, U29C, U31C
# DNA 1: CAATCTGAATTCCGGTCTCCC
# DNA 2: TGGTGGCTACGACGGGATT
# B15: GAAUGUA (DNA:RNA)
# RNA: B1 RNA with C25G, U27A, G28U, U29G, G30U, U31A
# DNA 1: CAATCTGAATTCCGGTCTCCC
# DNA 2: TGGTGGCTACGACGGGATT
# B16: AGCACAC (DNA:RNA)
# RNA: GGGAGACCGGAAUUCAGAUUGUCCAGCACACUUAAAUCCCGUCGUAGCCACCA
# DNA 1: CAATCTGAATTCCGGTCTCCC
# DNA 2: TGGTGGCTACGACGGGATT
# B17: UAAUAUG (DNA:RNA)
# RNA: B1 RNA with C25U, U27A, G28U, U29A, G30U, U31G
# DNA 1: CAATCTGAATTCCGGTCTCCC
# DNA 2: TGGTGGCTACGACGGGATT
# B18: UCGGGCG (DNA:RNA)
# RNA: B1 RNA with C25U, A26C, U27G, U29G, G30C, U31G
# DNA 1: CAATCTGAATTCCGGTCTCCC
# DNA 2: TGGTGGCTACGACGGGATT
# B19: CGGUCCG (DNA:RNA)
# RNA: B16 RNA with A25C, C27G, A28U, A30C, C31G
# DNA 1: CAATCTGAATTCCGGTCTCCC
# DNA 2: TGGTGGCTACGACGGGATT
# B20: GGGGGGG (DNA:RNA)
# RNA: B1 RNA with C25G, A26G, U27G, U29G, U31G
# DNA 1: CAATCTGAATTCCGGTCTCCC
# DNA 2: TGGTGGCTACGACGGGATT
# B21: AGGCAAA (DNA:RNA)
# RNA: B16 RNA with C27G, A28C, C29A, C31A
# DNA 1: CAATCTGAATTCCGGTCTCCC
# DNA 2: TGGTGGCTACGACGGGATT
# B22: CAUUAGG (DNA:RNA)
# RNA: B1 RNA with G28U, U29A, U31G
# DNA 1: CAATCTGAATTCCGGTCTCCC
# DNA 2: TGGTGGCTACGACGGGATT
# B23: UCGCGGU (DNA:RNA)
# RNA: B1 RNA with C25U, A26C, U27G, G28C, U29G
# DNA 1: CAATCTGAATTCCGGTCTCCC
# DNA 2: TGGTGGCTACGACGGGATT
# B24: AACGUGU (DNA:RNA)
# RNA: B1 RNA with C25A, U27C
# DNA 1: CAATCTGAATTCCGGTCTCCC
# DNA 2: TGGTGGCTACGACGGGATT
# B25: CUAAAAU (DNA:RNA)
# RNA: B16 RNA with A25C, G26U, C27A, C29A, C31U
# DNA 1: CAATCTGAATTCCGGTCTCCC
# DNA 2: TGGTGGCTACGACGGGATT
# B26: AAACUGU (DNA:RNA)
# RNA: B1 RNA with C25A, U27A, G28C
# DNA 1: CAATCTGAATTCCGGTCTCCC
# DNA 2: TGGTGGCTACGACGGGATT
# B27: UCUCGCU (DNA:RNA)
# RNA: B1 RNA with C25U, A26C, G28C, U29G, G30C
# DNA 1: CAATCTGAATTCCGGTCTCCC
# DNA 2: TGGTGGCTACGACGGGATT
# B28: ACGUCUA (DNA:RNA)
# RNA: B16 RNA with G26C, C27G, A28U, A30U, C31A
# DNA 1: CAATCTGAATTCCGGTCTCCC
# DNA 2: TGGTGGCTACGACGGGATT
# B29: AUGAGCU (DNA:RNA)
# RNA: B16 RNA with G26U, C27G, C29G, A30C, C31U
# DNA 1: CAATCTGAATTCCGGTCTCCC
# DNA 2: TGGTGGCTACGACGGGATT
# B30: CCUGUCU (DNA:RNA)
# RNA: B1 RNA with A26C, G30C
# DNA 1: CAATCTGAATTCCGGTCTCCC
# DNA 2: TGGTGGCTACGACGGGATT
# B31: GUUUCUU (DNA:RNA)
# RNA: B1 RNA with C25G, A26U, G28U, U29C, G30U
# DNA 1: CAATCTGAATTCCGGTCTCCC
# DNA 2: TGGTGGCTACGACGGGATT
# Target: T1, RBFOX1 RRM RbFoxmut (Fox-RRM*) (Homo sapiens, UniProt Q9NWB1 109-208, R118D;E147R;N151S;E152T)
# T1 sequence: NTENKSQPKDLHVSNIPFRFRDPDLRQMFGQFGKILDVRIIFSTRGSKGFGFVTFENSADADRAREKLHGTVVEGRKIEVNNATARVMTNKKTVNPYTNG
# Assay: EMSA; HiTS-Eq, 1 nM pool, 10 min; buffer printed only for the single-RNA assays: 10 mM Tris pH 7.5, 150 mM NaCl, 3.4 mM EDTA, 0.001% NP-40, 30 C
# Conditions: tags: His6 N-terminal (pET28a); label: 5' 32P
# How it was run: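 Purified RbFox RRM, wild type or mutant, was incubated for 10 min in 50 µL with 1 nM of a 5′-radiolabelled RNA pool carrying 7 randomized nucleotides, whose flanks were annealed to DNA oligonucleotides, over a series of increasing protein concentrations. Unbound RNA was resolved on 8% native PAGE, cut out, reverse-transcribed, barcoded by PCR and sequenced on an Illumina HiSeq 2500. Relative association constants were derived from changes in read counts for each RNA species versus the control reaction and normalised to the cognate motif.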
row,Binder,binding signal
1,B1,0.213 KA relative to UGCAUGU
2,B2,0.0803 KA relative to UGCAUGU
3,B3,0.112 KA relative to UGCAUGU
4,B4,0.0959 KA relative to UGCAUGU
5,B5,0.106 KA relative to UGCAUGU
6,B6,0.0811 KA relative to UGCAUGU
7,B7,0.114 KA relative to UGCAUGU
8,B8,0.111 KA relative to UGCAUGU
9,B9,0.0644 KA relative to UGCAUGU
10,B10,0.122 KA relative to UGCAUGU
11,B11,0.233 KA relative to UGCAUGU
12,B12,0.1 KA relative to UGCAUGU
13,B13,0.0707 KA relative to UGCAUGU
14,B14,0.0957 KA relative to UGCAUGU
15,B15,1.18 KA relative to UGCAUGU
16,B16,0.0849 KA relative to UGCAUGU

row,Binder,binding signal
1,B17,0.104 KA relative to UGCAUGU
2,B18,0.0862 KA relative to UGCAUGU
3,B19,0.16 KA relative to UGCAUGU
4,B20,0.0675 KA relative to UGCAUGU
5,B21,0.0763 KA relative to UGCAUGU
6,B22,0.0916 KA relative to UGCAUGU
7,B23,0.1 KA relative to UGCAUGU
8,B24,0.122 KA relative to UGCAUGU
9,B25,0.0447 KA relative to UGCAUGU
10,B26,0.073 KA relative to UGCAUGU
11,B27,0.0966 KA relative to UGCAUGU
12,B28,0.0958 KA relative to UGCAUGU
13,B29,0.123 KA relative to UGCAUGU
14,B30,0.104 KA relative to UGCAUGU
15,B31,0.115 KA relative to UGCAUGU
